Measured values taken from PubChem BioAssay (Tox21).
Values joined by “and” are separate entries in the source; they are usually repeats but may differ in a detail not shown here. Identical values can stand only once. This list was built around the results that the source calls inconclusive (neither active nor inactive); the mix of calls is not that of the screen. A potency beside an inconclusive call is a rough fit, not a confirmed value. Active and inactive are the calls of the source. The call rests on the fitted dose curve; in most records, active means well fitted inhibition curve with a large enough effect in the repeat runs; inconclusive means weak or mixed curves; inactive means no such curve, though single readings can be large or run the other way.

target: Estrogen receptor (Homo sapiens) (UniProt P03372); experiment: qHTS assay to identify small molecule antagonists of the estrogen receptor alpha (ER-alpha) signaling pathway using the BG1 cell line in the presence of 0.1 nM 17-beta-estradiol (AID 1259244); conditions: VM7Luc4E2 (BG1) ERE-luciferase, antagonist mode, 0.1 nM E2, 22 h; series mostly up to 92.4 µM; activity change, negative = inhibition: at the top concentration; further: nearly all actives have a fitted effect of over 50% in size
From the text: National Center for Advancing Translational Sciences [NCATS]
NIH Chemical Genomics Center [NCGC]
U.S. Environmental Protection Agency [EPA]
National Institutes of Environmental Health Sciences [NIEHS]
National Toxicology Program [NTP]
U.S. Food and Drug Administration [FDA]
Estrogen receptor (ER), a member of the nuclear hormone receptor plays an important role in development, metabolic homeostasis and reproduction. Two subtypes of ER, ER-alpha and ER-beta, have similar expression patterns with some uniqueness in both types. Endocrine disrupting chemicals (EDCs) and their interactions with steroid hormone receptors like ER causes disruption of normal endocrine function. Therefore, it is important to understand the effect of environmental chemicals in ER signaling pathway. For identifying ER antagonists, VM7Luc4E2 cell line was used to screen against Tox21 compound libraries.
VM7Luc4E2 cell line (provided by Denison MS, University of California) endogenously express full-length ER-alpha and is stably transfected with a plasmid containing four estrogen responsive elements (ERE) upstream of a luciferase reporter gene. The current screening for identification of ER-alpha inhibitors against Tox21 compound libraries used lower concentration (0.1 nM) of 17beta-Estradiol as a stimulator.
Tox21 Assay Protocol Summary:
VM7Luc4E2 cells were cultured in phenol red free assay medium containing 10% charcoal stripped FBS for 5 days prior to the assay. The cells were dispensed at 4,000 cells/well in 4 uL of assay medium into white wall/solid-bottom 1536-well plates (Corning Life Sciences, Corning, NY) using a Multidrop Combi (ThermoFisher Scientific, Waltham, MA) dispenser. After the assay plates were incubated at 37C and 5% CO2 for 24 hr, 23 nL of compounds dissolved in DMSO, positive controls or DMSO only was transferred to the assay plates by a Pintool station (Kalypsys, San Diego, CA). The transfer of compounds was followed by the addition of 1 uL of 0.1 nM (final concentration) agonist (17beta-Estradiol)/assay medium using a Flying Reagent Dispenser (FRD, Aurora Discovery, San Diego, CA). The plates were incubated at 37C and 5% CO2 for 22 hr. For luciferase reporter gene assay, 4 uL of ONE-Glo reagent (Promega Corporation, Madison, WI) was added to each well using the FRD and after 30 min incubation at room temperature luminescence intensity was measured using ViewLux plate reader (PerkinElmer, Shelton, CT).
On the % scale 0 is the no-effect control and ±100 the full control effect; potency means the concentration at half of the fitted maximal effect; tags describe the fitted curve by direction and shape.

Chain of UniProt P03372 (P03372 whole entry, looked up): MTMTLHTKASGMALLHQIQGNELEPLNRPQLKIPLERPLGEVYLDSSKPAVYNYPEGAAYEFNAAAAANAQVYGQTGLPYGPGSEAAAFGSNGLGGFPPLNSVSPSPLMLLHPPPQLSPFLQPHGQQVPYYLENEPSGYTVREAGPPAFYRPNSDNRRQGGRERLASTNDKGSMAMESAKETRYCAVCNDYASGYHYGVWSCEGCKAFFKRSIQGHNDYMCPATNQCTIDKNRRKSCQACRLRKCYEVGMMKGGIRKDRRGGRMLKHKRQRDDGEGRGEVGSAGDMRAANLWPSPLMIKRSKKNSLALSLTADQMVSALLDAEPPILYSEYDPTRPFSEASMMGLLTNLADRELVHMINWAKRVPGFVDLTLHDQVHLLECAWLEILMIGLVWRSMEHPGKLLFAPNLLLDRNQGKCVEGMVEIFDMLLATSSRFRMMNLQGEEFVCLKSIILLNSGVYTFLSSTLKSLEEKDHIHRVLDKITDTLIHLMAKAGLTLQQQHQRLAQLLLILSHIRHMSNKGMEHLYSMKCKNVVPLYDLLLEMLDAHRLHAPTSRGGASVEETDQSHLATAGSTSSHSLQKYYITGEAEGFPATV

SMILES	Potency	activity change, negative = inhibition
Nc1ccc(-c2ccccc2)cc1	inconclusive: 70.5 µM [inhibitor, single point]	–
CCN(CC)C(=S)[S-].CCN(CC)C(=S)[S-].[Zn+2]	active: 1.08 µM	–
CC(=O)/C=C/c1ccc2c(c1)OCO2	inconclusive: 68.9 µM [inhibitor, single point]	–
CCOP(=S)(OCC)SCn1c(=O)oc2cc(Cl)ccc21	inconclusive: 73.6 µM [inhibitor, single point]	–
Cc1c([N+](=O)[O-])cc2c(c1[N+](=O)[O-])C(C)(C)CC2(C)C	inconclusive: 30.6 µM [inhibitor, partial curve]	–
COc1ccc2c3c1O[C@H]1[C@@H](O)C=C[C@H]4[C@@H](C2)N(C)CC[C@@]341	inconclusive: 60.1 µM [inhibitor, single point]	–
OC(c1ccc(F)cc1)(c1cncnc1)c1ccccc1Cl (stereo not given)	–	inactive: -5.24%
CC(C)N(C(=O)CCl)c1ccccc1	active: 27.3 µM and active: 54.5 µM	–
CC(C)(O)C(=O)Nc1ccc([N+](=O)[O-])c(C(F)(F)F)c1	active: 31.3 µM and active: 35.5 µM	–
COc1ccc(C=O)cc1OC	inconclusive: 77.7 µM [inhibitor, single point]	–
CC(C)(C)C(O)/C(=C\c1ccc(Cl)cc1Cl)n1cncn1 (stereo not given)	active: 74 µM	–
CC(CC(C#N)(c1ccccc1)c1ccccc1)N(C)C (stereo not given)	inconclusive: 68.2 µM [inhibitor, single point]	–
CC(Br)C(=O)O (stereo not given)	inactive	–
O=[N+]([O-])c1cccc2ccccc12	inactive	–
O=[N+]([O-])c1ccc2ccc3cccc4ccc1c2c34	inconclusive: 7.69 µM [inhibitor, full curve, poor fit]	–
O=C1NCN(c2ccccc2)C12CCN(CC1COc3ccccc3O1)CC2 (stereo not given)	inconclusive: 26.6 µM [inhibitor, partial curve]	–
CC(C)Nc1ccc(Nc2ccccc2)cc1	active: 21.6 µM and inconclusive: 77 µM [inhibitor, single point]	–
CCCCCCCCC(=O)NCc1ccc(O)c(OC)c1	inconclusive: 77 µM [inhibitor, partial curve]	–
COP(=S)(OC)Oc1cc(Cl)c(Br)cc1Cl	inconclusive: 61.1 µM [inhibitor, partial curve, poor fit]	–
CNC(=O)Oc1cc(C)c(SC)c(C)c1	inconclusive: 54.5 µM [inhibitor, single point]	–

SMILES	Potency	activity change, negative = inhibition
II	inconclusive: 48.6 µM [inhibitor, partial curve, poor fit]	–
Cc1ccc(N)cc1N	inconclusive: 16.8 µM [inhibitor, full curve]	–
Nc1ccc(-c2ccc(N)c(Cl)c2)cc1Cl	inconclusive: 54.8 µM [inhibitor, partial curve, poor fit] and inconclusive: 64 µM [inhibitor, partial curve]	–
O=S(=O)(O)C(F)(F)C(F)(F)C(F)(F)C(F)(F)F	inconclusive: 29 µM [inhibitor, partial curve]	–
O=S(=O)(c1ccc(Cl)cc1)c1ccc(Cl)cc1	inconclusive: 34.8 µM [inhibitor, partial curve]	–
c1ccc(N=NNc2ccccc2)cc1	inconclusive: 54.5 µM [inhibitor, single point]	–
CC1(c2ccc(Oc3ccccc3)cc2)OC(=O)N(Nc2ccccc2)C1=O (stereo not given)	active: 8.69 µM	–
CC1COC2(c3ccccc3Cl)c3cc(Cl)ccc3NC(=O)CN12 (stereo not given)	inconclusive: 21.1 µM [inhibitor, partial curve]	–
COP(=O)(OC)OC	inconclusive: 49 µM [inhibitor, partial curve]	–
O=S(=O)(c1ccc(Cl)cc1)c1cc(Cl)c(Cl)cc1Cl	inconclusive: 19.3 µM [inhibitor, partial curve] and inconclusive: 24.3 µM [inhibitor, partial curve]	–
Oc1c(Cl)c(Cl)cc(Cl)c1Cl	inconclusive: 26.6 µM [inhibitor]	–
OC(Cc1ccccc1Cl)(Cn1[nH]cnc1=S)C1(Cl)CC1 (stereo not given)	inconclusive: 68.6 µM [inhibitor, single point]	–
CCCCC(C#N)(Cn1cncn1)c1ccc(Cl)cc1 (stereo not given)	inconclusive: 30.5 µM [inhibitor, partial curve, poor fit]	–
CC(=O)CCc1ccc2c(c1)OCO2	–	inactive: 4.53%
CCC1(c2ccccc2)C(=O)N=C(O)NC1=O (stereo not given)	–	inactive: 2.24%
CCNc1nc(NC(C)(C)C)nc(SC)n1	inconclusive: 67.7 µM [inhibitor, partial curve, poor fit]	–
CCOP(=S)(NC(C)C)Oc1ccccc1C(=O)OC(C)C (stereo not given)	inconclusive: 30.6 µM [inhibitor, partial curve]	–
CCOc1cc(Oc2ccc(C(F)(F)F)cc2Cl)ccc1[N+](=O)[O-]	inactive and inconclusive: 30.6 µM [inhibitor, partial curve, poor fit]	–
Nc1ccc(Br)cc1	inconclusive: 68.5 µM [inhibitor, single point]	–
CC(C)(C)C(O)C(Oc1ccc(-c2ccccc2)cc1)n1cncn1 (stereo not given)	inconclusive: 68.6 µM [inhibitor, single point]	–
